This note sets out measurements from article PMC12136788.

The other results are listed elsewhere or left out.

First the molecules themselves.
T1: UNK ZnF1-3 (human, UniProt Q9C0B0 31-174)
T1 sequence: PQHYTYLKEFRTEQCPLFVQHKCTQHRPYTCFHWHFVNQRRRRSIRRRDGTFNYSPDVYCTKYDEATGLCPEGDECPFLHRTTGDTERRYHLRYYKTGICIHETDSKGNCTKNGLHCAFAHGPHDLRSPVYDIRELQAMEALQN

B1: chr1:39494447:39494448:+_ENSG00000168653_ENST00000372967|hu_mus|hu_hu_hu_mus_False|48_88 (ssRNA)
RNA: GGGAGUUCUACAGUCCGACGAUCGCACCGAGCGGCGUUCUUAUAGGGCUGUUCACCGCUUAGGAACAUAAAGUGCCGGUCCAGGCUAAGGCCGAACUUUUUCUGUAUGUCAAGGAAAGGCAUGGCUCUGCAGUGCCCUUGUCACAACAGAGGAUUGAGCAUCA
B2: chr1:185278638:185278639:-_ENSG00000116679_ENST00000392007|hu_hu|motif|central (ssRNA)
RNA: GGGAGUUCUACAGUCCGACGAUCUAAAAUUUUCAUCCUCAAACAUCAAAUAUCCAUUGGGAAUCAUUUUUCCUUAUAAAUUUGGCGGCUCUGUUGGUGGCAAAUGUAUUUCUGGGAACUCUUAAGUAAUCCAAGGACAAAGGACAACAGAGGAUUGAGCAUCA
B3: chr2:201943701:201943702:+_ENSG00000119013_ENST00000433898|hu_mus|FALSE|FALSE (ssRNA)
RNA: GGGAGUUCUACAGUCCGACGAUCAUUGCGAGCCCAUGGAUCCCUCAGCCCUCGGGCAGCAAGCUUCUUCUGCACCGUUUCUAAUGGCGUCCCUUCAAUUUUCCACUGUCUGUAAUCUGGAAGUUCCAUUUUACCAUGGCCAUGCAACAGAGGAUUGAGCAUCA
B4: 135925620_135927489_684_CDS_ENSMUSG00000039959_ENSMUST00000060311|mouse|control|control (ssRNA)
RNA: GGGAGUUCUACAGUCCGACGAUCGAUGAGCGGUGCGAGGCGGCACUGGCCAGCCGUGGUCACGGACACCGAACGGGACAUGUCCAAGGAGUUGAACACAGUCUGGAAGAGGUUCAGUUCACACUCCAGGUAAUCAAACAUCUCCAACAGAGGAUUGAGCAUCA
B5: chr10:127452298:127452299:+_ENSMUSG00000025395_ENSMUST00000026461|mus_mus|FALSE|FALSE (ssRNA)
RNA: GGGAGUUCUACAGUCCGACGAUCAAAGCUUGAGUAGCUCCGGCAGCUCCGCAGGAUCAAAUGGCUCCAUGAAGUAAAGAACUAGACCCGGACAGGACUGACACGAGAAUUGGCGGGAACAAGACAGGCCUCCAUCCCUGCGCGCAACAGAGGAUUGAGCAUCA
B6: chr19:16212804:16212805:+_ENSG00000167460_ENST00000300933|hu_mus|hu_hu_hu_mus_False|98_108 (ssRNA)
RNA: GGGAGUUCUACAGUCCGACGAUCAACAAAUAUGCAAAAGAACAUCAAUGUAACAUGGAACAGCAUUAAAGCUCAGUCAGAAGGCACAUGGGCAACAAUGAUCACCCCAGCAUUCUCGCUUGGAAUGCUUAAAGACAAUCUGUUCAACAGAGGAUUGAGCAUCA
B7: chr7:54168817:54168818:-_ENSMUSG00000014402_ENSMUST00000014546|mus_hu|FALSE|FALSE (ssRNA)
RNA: GGGAGUUCUACAGUCCGACGAUCGUUUGAGAUCUUUGUAUAGAGUAAUAACAUUGACAGUUUCACGUACAGUUAGGUCUCUGUAUUUGUACUUGGACACCAUUUUCUUGAGCUGGCUCUCCGACACCGCCAUGACGGCCGCCUCAACAGAGGAUUGAGCAUCA
B8: chr3:179287964:179287965:+_ENSG00000136518_ENST00000429709|hu_hu|hu_hu_hu_mus_True|8_108 (ssRNA)
RNA: GGGAGUUCUACAGUCCGACGAUCCUUUAGAGGUGAAAUGGCCUCCAUGUUCUCCCUGGGCACGCGGAGGGCAUUGGUGUCUAUGUAGUAGGUGGGCCCGCCCUGCUUGCCUUUGUCACCAUCAAUCUCCAUUAAUGUACUUCCCAACAGAGGAUUGAGCAUCA
B9: chr7:148679106:148679107:+_ENSMUSG00000025511_ENSMUST00000117634|mus_mus|FALSE|FALSE (ssRNA)
RNA: GGGAGUUCUACAGUCCGACGAUCCCUGCCUGGAGCACCAAGAUCAUCGUGGGCCUUGAGCAGACUGGGCCUGCCCCCAACCUAGCAACCAUGCAAGGCUGGGAACCCCAUCCUGUGUGAACACUGGAAGGUAUAUAUGGAUAUCAACAGAGGAUUGAGCAUCA
B10: 38353958_38354078_3120_CDS_ENSMUSG00000044864_ENSMUST00000156038|mouse|control|control (ssRNA)
RNA: GGGAGUUCUACAGUCCGACGAUCUAACAACUUAAUGAUCUGAGAAUGCCCGUUUUUGGCUGCCACCCUCAUGGCAGUGCGUCCAAAUUGGUCGGCAUGAUUGGGAUCAGCACCGUGUUCCAGCAAAACCUGCACUACAUCCACCAACAGAGGAUUGAGCAUCA
B11: 70208459_70208579_3005_CDS_ENSG00000131626_ENST00000253925|human|control|control (ssRNA)
RNA: GGGAGUUCUACAGUCCGACGAUCCGGGGCAGACGGGCUGGUCAGCGACAUGAUCUCCUGGAUGGCCAGCCUCAGCUUCAGCCUGUGCAGGGGGUUGCUGAUGCCAAUCUCACGCUGGAUCUCUGUGUCGGACAGGGCCGACAUCAACAGAGGAUUGAGCAUCA
B12: chr3:37053522:37053523:+_ENSG00000076242_ENST00000455445|hu_hu|FALSE|FALSE (ssRNA)
RNA: GGGAGUUCUACAGUCCGACGAUCCAAAGAUGGAGCGAAUAUUGUCCACGGUUGAGGCAUUGGGUAGUGUCCUAACAUCAGCUACUGUCUCUCCUUGUUUUUUAACUGAGAAACUAAUGCCUGCAUUGUGUACUGAAUACCUGCCAACAGAGGAUUGAGCAUCA
B13: chr4:149991449:149991450:+_ENSMUSG00000039852_ENSMUST00000105680|mus_mus|motif|central (ssRNA)
RNA: GGGAGUUCUACAGUCCGACGAUCGCGCUCGGCUGCCAGUCUGUCUGGGUAACUCAUCUCAGGCCGCAGCUGAGGACCUGCGGGUGCCAGUCUCUCCCGCUCCAAAGGGUUGAGGCCCGGGUGGAAAGAGGCAAAGGGGUGGGGCAACAGAGGAUUGAGCAUCA
B14: 6668594_6668714_779_CDS_ENSMUSG00000041272_ENSMUST00000039987|mouse|control|control (ssRNA)
RNA: GGGAGUUCUACAGUCCGACGAUCGCCGGGCUGCAUCAUGCUUGCCUGCUGUCUGAUGUCUGUAGGCUGGCCUCUCGGCCUCAUGGCUGCCAUCUGAGGAUGGGAGCUGUACUGAGCUCCUUCUGCGUUCCCAAUCUCUUGCAUCAACAGAGGAUUGAGCAUCA
B15: chr1:186330979:186330980:-_ENSG00000047410_ENST00000367478|hu_hu|FALSE|FALSE (ssRNA)
RNA: GGGAGUUCUACAGUCCGACGAUCGUACAAAUUAGAAAGUUUUAUGUGGGCAUUUAAUUCAUUGUGGAAUUUCUCUUCCAUACUGGCCUGUUGUUCCUUGGCCUCUUUUAAUUUGGUCAACAGAUCCUCCACAUGCUUUUGAAGCAACAGAGGAUUGAGCAUCA
B16: chr11:106646565:106646566:-_ENSMUSG00000020719_ENSMUST00000021062|mus_hu|motif|central (ssRNA)
RNA: GGGAGUUCUACAGUCCGACGAUCUCUGCUUCAUCAAGGACAAGGUAGGUUGUUCUUCUCAGAUUGGUUUUUCCACACUCGGAAAAGUCAAUCAGUCUUCCAGGUGUUGCAAUACAGAUUUCCACACCUCUCUCCAAAUCACGUCAACAGAGGAUUGAGCAUCA
B17: 4764818_4764938_1217_3pUTR_ENSG00000101265_ENST00000379400|human|control|control (ssRNA)
RNA: GGGAGUUCUACAGUCCGACGAUCUGUGUCUAAAUGUUUCCAUGGAAAGAAAGUGCCUAGCUUCCUGGGGGUCUUAUGGGCAAUGGCGGUUCCUGGGGUGCCCAGAUCCCCUCGUUCUCAUGGCUCAGAUUGUUGCUGGGGUCUCAACAGAGGAUUGAGCAUCA
B18: chr20:57485041:57485042:+_ENSG00000087460_ENST00000306090|hu_mus|FALSE|FALSE (ssRNA)
RNA: GGGAGUUCUACAGUCCGACGAUCGUAGUCCUCAAUCUUCGAUUUGCCAGCGAGGACUUUCUCAGCAAGCAGGUCUUGCUUGUUGAGGAAGAGAAUCACAGAGAUGGUGCGCAGCCAUCUGUUGUUCCAGAUGCUCUUGAAGAGCAACAGAGGAUUGAGCAUCA
B19: chr1:183098298:183098299:+_ENSMUSG00000062169_ENSMUST00000134115|mus_mus|FALSE|FALSE (ssRNA)
RNA: GGGAGUUCUACAGUCCGACGAUCGUCUUUAUAGACAAGGCAGCUUUCUCAGUCAGUCCUCCUCUGCAGCUUAGGCCCAACAAGACAGCCCAAAGGUGCUUAGUUCCAUGGCUUUCAGUUUAAGCUCAAACAUUCUAGACAAAACAACAGAGGAUUGAGCAUCA
B20: chr2:62099399:62099400:-_ENSG00000115484_ENST00000544079|hu_hu|motif|central (ssRNA)
RNA: GGGAGUUCUACAGUCCGACGAUCGUAGGAUUCCAUACCACUCAGUGUUCGUGAAUAUUCAGUUAAUCGUAGGGCCAACUCGGUUUCUGGAGCACCACCUCCUGCAAUAAGAGCCCUCUUCUUCACUAAACAACGAAUAACACACAACAGAGGAUUGAGCAUCA
B21: chr11:82972979:82972980:-_ENSG00000137500_ENST00000527495|hu_mus|FALSE|FALSE (ssRNA)
RNA: GGGAGUUCUACAGUCCGACGAUCGCAGCAGCGGCAGCAUCAUCGUCAGUUCUCCUUCCAGAACCUAUAAAACCCCAAUGCUAUCGCCAAGCAAGUGAACACUGAGGCUGCAAGAUAACGAAUUGUUUCAAGUUUGCUCGACUCCAACAGAGGAUUGAGCAUCA
B22: chr8:8869160:8869161:+_ENSG00000104626_ENST00000250263|hu_hu|FALSE|FALSE (ssRNA)
RNA: GGGAGUUCUACAGUCCGACGAUCUAUUUCAUGUACAAACUCAGGUGGGUUUCCUUCUUCACAAGUGGCUUCAAAGUCAAUAAUACAAAUGUAGUCAUAAUAACUGUCAGCAAAAUUGCUCUCUUUCAGCAUCAGCUUCUGCUUCAACAGAGGAUUGAGCAUCA

In this experiment the target is T1, UNK ZnF1-3. As to the kind of experiment: nsRBNS (natural sequence RNA bind-n-seq); RBNS binding buffer (assumed for nsRBNS): 25 mM Tris pH 7.5, 150 mM KCl, 3 mM MgCl2, 0.01% Triton X-100, 500 ug/ml BSA, 20 U/ml SUPERase-In, 4 C; UNK is unkempt and MSI1 is Musashi-1; names of the RNAs are library labels; protein concentration not given here; high values mean tight binding.
Molecule B1 returned a binding signal of 0.793 enrichment R.
Under B2 stands 1.27 enrichment R.
The same measure for B3: 0.731 enrichment R.
The same measure for B4: 1.37 enrichment R.
B5 displayed a binding signal of 1.5 enrichment R.
B6 displayed a binding signal of 0.859 enrichment R.
B7: the binding signal came out at 0.572 enrichment R.
Under B8 stands 0.708 enrichment R; under B9, 0.888 enrichment R; under B10, 1.02 enrichment R.
The same measure for B11: 0.471 enrichment R.
B12 had a binding signal of 0.499 enrichment R.
Under B13 stands 1.31 enrichment R; under B14, 0.505 enrichment R.
Under B15 stands 0.4 enrichment R; under B16, 0.748 enrichment R.
B17 showed a binding signal of 0.86 enrichment R.
Under B18 stands 0.763 enrichment R; under B19, 1.21 enrichment R.
Under B20 stands 1.34 enrichment R; under B21, 1.04 enrichment R.
Under B22 stands 1.09 enrichment R.
